The source gives no read counts; variants with many changes may rest on few reads.
B1: CPEB3 Ribozyme (parent)
chain: UAACAGGGGGCCACAGCAGAAGCGUUCACGUCGCAGCCCCUGUCAGAUUCUGGUGAAUCUGCGAAUUCUGCUGUAUAUCUC

Variants of: B1
Assay: self-cleavage, relative activity (ratio to wild type); higher = more cleavage; in vitro, sequencing
Method in brief: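 For each CPEB3 ribozyme variant, relative activity is its cleaved/total read fraction divided by the unmutated ribozyme's. Barcoded error-prone PCR libraries were transcribed by T7 RNA polymerase (5 hours, 37°C) and held in DNase I for 15 min before an EDTA stop, with cleavage occurring throughout. Template-switching reverse transcription and Illumina sequencing were used to read the RNAs. A 5-read minimum applied, and results are the mean of three batches.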

Variant | self-cleavage
A13U U43C A56U U60A | 0.08
A13U U43C U51A | 1.12
A13U U43C U60A U69A | 0.13
A13U U43C U74C | 1.06
A13U U43G A47G U72A | 0.08
A13U U48C A75U | 0.77
A13U U49A A64G | 0.6
A13U U49A G73U | 1.04
A13U U49C A64C | 0.39
A13U U51A A77U | 1.28
A13U U51A C71U | 1.02
A13U U51A U60C | 0.6
A13U U51C A57G U60C | 0.34
A13U U51C U60C U69A U72A A77U | 0.32
A13U U54A U72C | 1.27
A13U U54C A56G | 0.72
A13U U54C U60C U72C U80A | 0.35
A13U U54G U60C U78C | 0.25
A13U U60C C62U A65G A77G U80C | 0.28
A13U U60C U66C U80A | 0.19
A13U U60C U67C | 0.2
A13U U69G U78G | 0.89
A13U U72C U74C | 1.19
C14A A15C C40U U43C U48A U51A A57G | 0.2

Variant | self-cleavage
C14A A15G A45U A65C U69C | 0.13
C14A A18U A28G | 0.64
C14A A18U A35G U43C U78C | 0.26
C14A A20G C27A C38U A45G U67A | 0.1
C14A A21G A64U U69A | 0.08
C14A A28C A45G A47U | 0.23
C14A A35U U54C | 0.97
C14A A35U U58C | 0.51
C14A A47G A64C | 0.34
C14A A56G A64U U74C | 0.66
C14A G19A U76A U80A | 0.21
C14A G22C U31C U43A U60A U69C | 0.04
C14A U25G U43A A75U | 0.48
C14A U26G U31A | 0.09
C14G A15C A20G A21G U26C | 0.58
C14G A15C A65U | 0.15
C14G A15G U58C A64G | 0.28
C14G A15U U25C G52C A57G U78C | 0.04
C14G A18G U26C C34G U48C A57G U67C | 0.04
C14G A21G A56G | 0.51
C14G A21G U26C A47G | 0.08
C14G A35U A45U | 0.23
C14G C34G U48C A57G | 0.21
C14G C50A U69C | 0.14

Variant | self-cleavage
C14G G24A A35G U41C | 0.5
C14G G24A U25C U54C U72C U76A A77G | 0.06
C14G U25C C27U A56C | 0.06
C14G U25C U74A | 0.32
C14G U41C A45G C50A U54A | 0.89
C14G U43C A64U | 0.2
C14G U43G U48C U80A | 0.34
C14G U66C C68U U76A | 0.22
C14G U66C U76A | 0.47
C14U A15G A28U C32A A47G U76C | 0.04
C14U A15G A45U | 0.93
C14U A15G C40U A56U U60C C62G U74A | 0.05
C14U A15G C59G A64G | 0.1
C14U A15G U31A A35G A47G U49C | 0.57
C14U A15G U69C U72A | 0.12
C14U A15U A20G G30A G33C | 0.04
C14U A18G A35G U74C | 1.26
C14U A18G A64U | 0.24
C14U A18G G19U C23U U25A A45U | 0.16
C14U A18G G19U C23U U31A C62U | 0.06
C14U A20G A64U U69G | 0.14
C14U A20G U48C U58A | 0.07
C14U A21G C50A U67A | 0.19
C14U A28U U67C U80C | 0.15

Variant | self-cleavage
C14U A35C U41A U48A | 0.22
C14U A35G U43C U72A | 1.25
C14U A35G U49C A65C U67C U78C U80C | 0.27
C14U A35G U58A | 1.2
C14U A45C U48C U69C U72A | 0.16
C14U A45U U78C | 0.87
C14U A56G G70A U72A | 0.28
C14U A65G U67C | 0.08
C14U C17U U26C U41A C71A | 0.05
C14U C23G U49A A56U | 0.2
C14U C32G C62U U69G U74C | 0.1
C14U C32U C39A G55U C79A | 0.22
C14U C34U G52A A57G U60C | 0.25
C14U C39A U49C | 0.04
C14U C39A U54C U80C | 0.35
C14U C40U A45U U67A G70U U72G | 0.04
C14U G22C C37U U43C G61A U78C | 0.04
C14U G30A A47G | 0.42
C14U G33C U54C A57G U72A | 0.1
C14U G63A U72A | 0.69
C14U G63A U78C | 1.17
C14U U25A G63A U67C U69A | 0.06
C14U U25A U43C | 0.43
C14U U25C A35G A57G | 0.35

Variant | self-cleavage
C14U U26A A77G | 0.83
C14U U26A U41C U60C | 0.43
C14U U26C U43C U72C A77G | 0.83
C14U U31A A64U | 0.17
C14U U31A U43C A45G A75G | 0.18
C14U U31C U49C U60C U66C | 0.09
C14U U41C C44U A77U | 0.38
C14U U51G C62U U78C | 0.27
C14U U54C U72C U78C | 1.21
A15C A18G G46A A56G U66A | 0.2
A15C A18G U43G U49A | 0.09
A15C A18G U72A U76C | 0.15
A15C A20G U31A A56G U80A | 0.15
A15C A21G U41A | 0.07
A15C A28G A35U U58G | 0.14
A15C A28U U43C U60A G63U | 0.11
A15C A35G U41C U49C | 0.57
A15C A35G U43C A57C | 0.2
A15C A35G U43C U69C | 0.16
A15C A45U A56U U69A U74C | 0.08
A15C A45U A64G U67G | 0.12
A15C A65G U67C A77U | 0.06
A15C C23G U76A | 0.21
A15C C34G U54C A57G U80A | 0.08

Variant | self-cleavage
A15C C37U A47G U48C | 0.08
A15C C38G U80A | 0.1
A15C C39U U54C A57G | 0.21
A15C G33A A64U U78C | 0.08
A15C G33A U72A | 0.23
A15C U25C G63C A64U U72A | 0.11
A15C U25G A28G U67C U78A C79G | 0.01
A15C U25G A45U U69C | 0.07
A15C U25G C27U U51C G52C U74C | 0.2
A15C U25G U41A | 0.23
A15C U26A C37U U51C C59G A64G U72C | 0.09
A15C U26C A56G | 0.32
A15C U26G A45U U51C U60C U78C | 0.03
A15C U31C U43A U69C U78A | 0.23
A15C U41A U43C | 0.21
A15C U41G U49C A77U U80A | 0.24
A15C U49A U51C U67C | 0.23
A15C U49C U58A U67C U69C | 0.12
A15C U49C U67C | 0.09
A15C U58C U78A | 0.63
A15C U58G C71A U76A A77G | 0.06
A15C U74C A75G | 0.79
A15G A18C A64U | 0.09
A15G A18C U26C G33U A45G U49C U74A | 0.24

Variant | self-cleavage
A15G A18C U31A U60C A65C | 0.16
A15G A18C U43C | 0.38
A15G A18G A20G U72C | 0.36
A15G A18G A21G A45G U48C U54G | 0.39
A15G A18G A21U U25A A45U A56G | 0.08
A15G A18G C27U G36C C40U | 0.06
A15G A18G C40U U43C A65U | 0.04
A15G A18G G22C | 0.47
A15G A18G U26C U60C | 0.36
A15G A18G U31C A56G U69C U76C | 0.05
A15G A18G U31C U41C A57U | 0.25
A15G A18G U41A U48C U76G | 0.19
A15G A18G U41A U51A U69C | 0.07
A15G A18G U41C U67C | 0.13
A15G A18G U43C | 0.14
A15G A18G U60C C68A U80C | 0.08
A15G A18U A20G U66C | 0.11
A15G A18U A20U A21G | 0.21
A15G A18U A21G | 0.49
A15G A18U A28G | 0.31
A15G A18U A45G U49C U74A | 0.05
A15G A18U A77U | 0.3
A15G A18U C38U U58C | 0.16
